The values below come from PubChem BioAssay AID1745853 (National Center for Advancing Translational Sciences (NCATS), 2022).

Holding throughout (experiment): Primary Screen for Target Class Profiling of Small Molecule Inhibitors of Methyltransferases
The target of experiment [1] is Glycine N-methyltransferase (Homo sapiens) (UniProt Q14749). The settings on record: purified enzyme, MTase-Glo SAH luminescence; measured here: GNMT inhibition; at 40 µM; stronger effect = lower value. In outline:
(§1)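 Each enzyme was reacted with SAM and its substrate, with compounds tested once at 40 uM; SAH formed was read by MTase-Glo luminescence.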

For experiment [2], the target named is Guanidinoacetate N-methyltransferase (Homo sapiens) (UniProt Q14353). The settings on record: purified enzyme, MTase-Glo SAH luminescence; measured here: GAMT inhibition; at 40 µM; stronger effect = lower value. In outline:
as §1

Experiment [3] addresses Histamine N-methyltransferase (Homo sapiens) (UniProt P50135). The settings on record: purified enzyme, MTase-Glo SAH luminescence; measured here: HNMT inhibition; at 40 µM; stronger effect = lower value. In outline: as §1
In experiment [4] the target is Nicotinamide N-methyltransferase (Homo sapiens) (UniProt P40261). The settings on record: purified enzyme, MTase-Glo SAH luminescence; measured here: NNMT inhibition; at 40 µM; stronger effect = lower value. In outline:
as §1

Experiment [5] deals with Phenylethanolamine N-methyltransferase (Homo sapiens) (UniProt P11086). The settings on record: purified enzyme, MTase-Glo SAH luminescence; measured here: PNMT inhibition; at 40 µM; stronger effect = lower value. In outline:
as §1

Some of the results follow. Further columns of the screen follow, without active or inactive calls.
% is scaled to controls: 0 for no effect and ±100 for the full control effect.

Take `Cc1ccc(N2C(=O)c3cc4sccc4n3CC2(C)C(=O)NC2CCCCCC2)cc1C` (centres undefined): the activity change, negative = inhibition in experiment [1] was -7.82%; in experiment [2], -0.452%; in experiment [3] it was -8.89%; in experiment [4], -7.69%; in experiment [5], -9.73%.

For `COc1cc(N2CCC(N(C)C)CC2)ccc1Nc1ncc(Cl)c(Nc2ccccc2P(C)(C)=O)n1`, the activity change, negative = inhibition in experiment [1] is 1.19%; in experiment [2] it was 5.82%; in experiment [3], -60.8%; in experiment [4], -13.7%; in experiment [5] it was 5.53%.

Take `CN(CC1CCOC1)C(=O)c1cccs1` (centres undefined): the activity change, negative = inhibition in experiment [1] is -7.93%; in experiment [2], -13.4%; in experiment [3] it was -6.33%; in experiment [4], -21.7%; in experiment [5], -16.1%.

Take `CCCn1cc(C(=O)NCC2COc3cc(OC)ccc3C2)c(C)n1` (centres undefined): the activity change, negative = inhibition was -5.67% in experiment [1]; -6.41% in experiment [2]; 0.4% in experiment [3]; -9.9% in experiment [4]; -8.63% in experiment [5].

For the molecule `COc1ccc(N2CCN(CCNS(=O)(=O)c3ccc4[nH]c(=O)[nH]c4c3)CC2)cc1`, the activity change, negative = inhibition worked out at 11.1% in experiment [1]; 2.2% in experiment [2]; 8.65% in experiment [3]; 0.898% in experiment [4]; 5.87% in experiment [5].

Turning to `CC(C)CN(C[C@@H](O)[C@H](Cc1ccccc1)NC(=O)O[C@@H]1CO[C@H]2OCC[C@H]21)S(=O)(=O)c1ccc(N)cc1`, the activity change, negative = inhibition in experiment [1] is 0.222%; in experiment [3], -0.886%.

On to `Cc1sc(C)c(C(=O)NC2(c3ccc(C(=O)O)cc3)CC2)c1Cc1ccc(C(F)(F)F)cc1`, for which the activity change, negative = inhibition is 4.56% in experiment [1]; -1.34% in experiment [2]; 10.9% in experiment [3]; -23.4% in experiment [4]; -4.7% in experiment [5].

With `CCOc1ccccc1CNC(=O)c1cc2n(n1)CC(C)(C(=O)NCc1ccccc1)N(C)C2=O` (centres undefined), the activity change, negative = inhibition in experiment [1] was 0.085%; in experiment [2], -0.291%; in experiment [3] it was 4.35%; in experiment [4] it was -1.79%; in experiment [5], -0.179%.

As for `COC(=O)C1C(O)CCC2CN3CCc4c([nH]c5ccccc45)C3CC21` (centres undefined), the activity change, negative = inhibition in experiment [1] was -9.9%; in experiment [3], 1.35%.

With `CCOc1cccc(C2c3cccn3-c3sc4c(c3CN2C(=O)Nc2ccc3c(c2)OCCO3)CCCC4)c1` (centres undefined), the activity change, negative = inhibition was -1.05% in experiment [1]; 2.08% in experiment [2]; 1.62% in experiment [3]; -4.99% in experiment [4]; 2.55% in experiment [5].

In the case of `COc1ccc(Cl)cc1NC(=O)C1CN(S(C)(=O)=O)CC12CCCCC2` (centres undefined), the activity change, negative = inhibition in experiment [1] was -0.896%; in experiment [2], 1.88%; in experiment [3], -0.172%; in experiment [4], -5.73%; in experiment [5], 1.62%.

`CC1CCCCC1NC(=O)C1(C)Cn2c(nc3ccccc32)C(=O)N1Cc1ccccc1F` (centres undefined): the activity change, negative = inhibition is 1.29% in experiment [1]; 5.47% in experiment [2]; 3.11% in experiment [3]; 4.31% in experiment [4]; -4.45% in experiment [5].

`O=C(NCc1ccccc1Cn1cccn1)c1ccc2cccc(F)c2n1`: the activity change, negative = inhibition in experiment [1] was -19.5%; in experiment [2], -10.3%; in experiment [3], -6.77%; in experiment [4], -17.2%; in experiment [5], -13.3%.

With `CCOc1ccc(CCNC(=O)CCc2nnc3n(Cc4ccc(Cl)cc4)c(=O)c4ccccc4n23)cc1`, the activity change, negative = inhibition in experiment [1] is -2.03%; in experiment [2] it was -4.08%; in experiment [3], 9.78%; in experiment [4] it was -0.658%; in experiment [5] it was -4.62%.

For `CC(C)OCCCNC(=O)C1c2c(n(C)c3ccccc23)SCC(=O)N1CCC1=CCCCC1` (centres undefined), the activity change, negative = inhibition in experiment [1] was found to be 8.64%; in experiment [2], 0%; in experiment [3] it was 5.26%; in experiment [4] it was 1.53%; in experiment [5], 9.19%.

Take `O=C(CCn1ccc2cc(S(=O)(=O)N3CCCC3)ccc21)NC1CCCc2ccccc21` (centres undefined): the activity change, negative = inhibition was -2.56% in experiment [1]; 1.34% in experiment [2]; 2.96% in experiment [3]; 1.02% in experiment [4]; -0.275% in experiment [5].

As to `COC(=O)c1cc2n(n1)CC(C)(C(=O)NC1CCC(C)CC1)N(Cc1ccc(OC)cc1OC)C2=O` (centres undefined), the activity change, negative = inhibition in experiment [1] was 5.12%; in experiment [2], 3.64%; in experiment [3] it was 10.1%; in experiment [4] it was -47.8%; in experiment [5], 2.18%.

As for `COc1cccc(CNC(=O)CCNc2cnc3cnccn23)c1`, the activity change, negative = inhibition in experiment [1] was -2.24%; in experiment [2], 0.124%; in experiment [3], 0.861%; in experiment [4] it was -0.752%; in experiment [5], 3.74%.

Take `O=C(NCc1nnc2ccccn12)[C@H]1CNC[C@H](C(=O)N2CCOCC2)C1`: the activity change, negative = inhibition was -6.08% in experiment [1]; -8.1% in experiment [2]; -6.16% in experiment [3]; -9.19% in experiment [4]; -8% in experiment [5].

Regarding `Cc1ccc(C(=O)Cn2nc3n(CC(C)C)c(=O)c4ccc(C(=O)NC5CCCC5)cc4n3c2=O)c(C)c1`, the activity change, negative = inhibition was -4.14% in experiment [1]; 1.08% in experiment [2]; -0.654% in experiment [3]; -2.23% in experiment [4]; -0.417% in experiment [5].

Consider `NC(N)=NCCC[C@H](N)C(=O)O`, for which the activity change, negative = inhibition in experiment [1] is -8.69%; in experiment [2] it was 4.13%; in experiment [3], -0.995%; in experiment [4], -4.19%; in experiment [5] it was 2.95%.

Turning to `CCc1ccc(S(=O)(=O)c2nnn3c2nc(NCCOC)c2cc(Cl)ccc23)cc1`, the activity change, negative = inhibition is -7.53% in experiment [1]; 0% in experiment [2]; -0.319% in experiment [3]; -1.31% in experiment [4]; -3.24% in experiment [5].

With `CC(C)n1nccc1S(=O)(=O)N[C@@H]1[C@@H](Cc2ccccc2)[C@H]2OCC[C@@H]12`, the activity change, negative = inhibition in experiment [1] is 0.836%; in experiment [2], -0.772%; in experiment [3], 3.35%; in experiment [4] it was -3.34%; in experiment [5], 9.43%.

As to `Cc1ccoc1C(=O)N1CC[C@@H]2CN(S(C)(=O)=O)[C@@H]2C1`, the activity change, negative = inhibition in experiment [1] was -3.75%; in experiment [2], -1.41%; in experiment [3], 0.965%; in experiment [4], 1.52%; in experiment [5], 2.06%.

In the case of `CN(C)Cc1nnc(C2CCN(Cc3cnc(-c4ccccn4)nc3)CC2)n1C`, the activity change, negative = inhibition in experiment [1] is -1.76%; in experiment [2] it was -4.91%; in experiment [3], -8.53%; in experiment [4] it was -9.72%; in experiment [5], 8.86%.

Consider `O=C(NCc1nc(-c2ncccn2)no1)C1CCCN(Cc2ccco2)C1` (centres undefined), for which the activity change, negative = inhibition is -0.368% in experiment [1]; -1.5% in experiment [2]; 0.562% in experiment [3]; -3.01% in experiment [4]; -2.41% in experiment [5].

Regarding `O=C(Nc1ccc(Oc2ccnc3[nH]ccc23)c(F)c1)c1cccn(-c2ccc(F)cc2)c1=O`, the activity change, negative = inhibition was 4.79% in experiment [1]; 4.19% in experiment [2]; 5.22% in experiment [3]; -26.4% in experiment [4]; 4.83% in experiment [5].

Regarding `C=C(C)C1Cc2c(ccc3c2OCC(c2ccc(O)cc2O)C3)O1` (centres undefined), the activity change, negative = inhibition in experiment [1] is -6.62%; in experiment [2], -5.35%; in experiment [3], 0.443%; in experiment [4], -15.5%; in experiment [5], -9.28%.

As to `COc1ccc(S(=O)(=O)N2CCC3(CC2)CC(OC)CCO3)cc1` (centres undefined), the activity change, negative = inhibition in experiment [1] is -3.69%; in experiment [2] it was 3.93%; in experiment [3], 2.02%; in experiment [4], 0.315%; in experiment [5], -2.23%.

`O=C1CCN(C(=O)Nc2ccccc2F)CCCC(C(=O)NCc2ccncc2)CCN1` (centres undefined): the activity change, negative = inhibition is -0.606% in experiment [1]; 1.47% in experiment [2]; 1.09% in experiment [3]; 0.263% in experiment [4]; 1.28% in experiment [5].

Regarding `CC1CCCC(O)CC(=O)c2c(O)cc(O)cc2CC(=O)O1` (centres undefined), the activity change, negative = inhibition in experiment [1] was 0%; in experiment [2] it was 6.86%; in experiment [3] it was 10.4%; in experiment [4], -2.69%; in experiment [5] it was 7.26%.

For the molecule `O=C(CCn1ccc2cc(S(=O)(=O)N3CCCC3)ccc21)NCc1cccnc1`, the activity change, negative = inhibition in experiment [1] is -4.98%; in experiment [2], 0%; in experiment [3] it was 1.8%; in experiment [4], -3.63%; in experiment [5], -7.27%.

As for `COCC(NC(=O)c1ccc2nc(C3CCCCC3)oc2c1)c1ccnn1C` (centres undefined), the activity change, negative = inhibition in experiment [1] is -14%; in experiment [2], -12.4%; in experiment [3], -24.5%; in experiment [4], -15.8%; in experiment [5] it was 4.08%.

As to `CCc1cc2c(cc3n2CC(C)(C(=O)NC2CCC(C)CC2)N(Cc2ccccc2Cl)C3=O)s1` (centres undefined), the activity change, negative = inhibition came out at 2.17% in experiment [1]; 0.158% in experiment [2]; 7.42% in experiment [3]; 1.63% in experiment [4]; 1.73% in experiment [5].

Consider `O=C(N[C@H]1CCN(C(=O)c2cc(C(F)(F)F)cc(C(F)(F)F)c2)[C@H](Cc2ccc(Cl)cc2)C1)c1ccnc2ccccc12`, for which the activity change, negative = inhibition is 1.09% in experiment [1]; 0.274% in experiment [2]; 11.3% in experiment [3]; -17.8% in experiment [4]; 1.5% in experiment [5].

For `c1cc(-c2ccnc3nc(C4CCC4)nn23)ccn1`, the activity change, negative = inhibition is -3.24% in experiment [1]; 1.19% in experiment [2]; -0.172% in experiment [3]; -5.28% in experiment [4]; -1.19% in experiment [5].

Consider `COc1cccc(CNC(=O)Cn2nc3n(Cc4ccc(C)cc4)c(=O)c4ccccc4n3c2=O)c1`, for which the activity change, negative = inhibition in experiment [1] worked out at 4.05%; in experiment [2] it was 0.325%; in experiment [3], 7.5%; in experiment [4], 3.09%; in experiment [5], 3.71%.

Consider `CC(C)NC(=O)c1ccc2c(=O)n(Cc3ccccc3)c3nnc(SCc4cccc(F)c4)n3c2c1`, for which the activity change, negative = inhibition in experiment [1] came to 4.18%; in experiment [2] it was 0.159%; in experiment [3] it was 7.47%; in experiment [4], 4.46%; in experiment [5], 6.49%.

For the molecule `Cn1cnc2c1c(=O)[nH]c(=O)n2C`, the activity change, negative = inhibition is -5.35% in experiment [1]; 2.63% in experiment [2]; 1.67% in experiment [3]; -1.97% in experiment [4]; 7.55% in experiment [5].
